Experimental data taken from PubChem BioAssay AID445 (National Center for Advancing Translational Sciences (NCATS), 2006).
In all, about 110,000 compounds went through this assay and about 40 (0.04%) were called active. This list was built around the results that the source calls inconclusive (neither active nor inactive); the mix of calls is not that of the screen. Calls follow the shape of the dose curve; as a rule, active = well fitted curve in the direction sought with a large enough effect in the signal ratio (not every such curve was filed as active); inconclusive = small, poorly fitted or top-dose-only effect, or a change in a side signal; inactive = flat fitted curve, though single readings scatter; the % refers to the signal ratio. Potencies of inconclusive entries are doubtful fits and often do not repeat.

Test: IkB Signaling;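 as to IkBa stabilization activation: 0% = basal untreated cells and 100% = reference inhibitor full response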
Conditions: ABC-DLBCL IkBa-CBG/CBR dual luciferase ratio (green luciferase fused to IkBa over red control in OCI-Ly3 lymphoma cells), 4 h; IkBa stabilization activation: at 57.1 µM (top of the series), scaled: untreated 0%, proteasome inhibitor 100% unless noted
Procedure, shortened: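 Curves were fitted separately to fusion (green), unfused (red) and ratio luminescence, then classed by r2, magnitude and activity. Cells: OCI-Ly3, 4 h compound plus doxycycline at 37C; 10 uM MG-132 defined full response.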
Potency is read from the fitted curve at half-maximal effect.

**Q.** For `COc1cccc(C2c3c(oc4cc(C)c(C)cc4c3=O)C(=O)N2CCCN(C)C)c1` (stereo unspecified), which “IkBa stabilization activation” value is on record?
**A.** inactive: 2.42%

**Q.** With `O=C(Nc1ccc(O)c(C(=O)O)c1)c1ccc2c(c1)C(=O)N(CC1CCCO1)C2=O` (stereo unspecified) as the molecule, how does the “IkBa stabilization activation” value read?
**A.** inactive: 1.53%

**Q.** For `COc1ccc(S(=O)(=O)Cc2ccc(C(=O)N3CCN(c4cc(C)ccc4C)CC3)o2)cc1`, which IkBa stabilization activation is on record?
**A.** inconclusive: 4.19% [signal inhibitor]

**Q.** For `O=C(Nc1cccc(-c2nc3ccccc3[nH]2)c1)c1c(F)cccc1F`, which IkBa stabilization activation is on record?
**A.** inconclusive: 1.22% [signal inhibitor]

**Q.** Which “IkBa stabilization activation” value does the source give for `CCn1cc2c(c1-c1cccc(C)c1)c(=O)n(C)c(=O)n2C` here?
**A.** inactive: 2.58%

**Q.** With `CCCNC(=O)c1c(NC(=O)c2ccc(C)cc2)sc2c1CCCCC2` as the molecule, how does the IkBa stabilization activation read?
**A.** inconclusive: 15.8% [signal inhibitor]

**Q.** For `CN(C)CCCn1cc(C2=C(c3c[nH]c4ccccc34)C(=O)NC2=O)c2ccccc21`, which IkBa stabilization activation is on record?
**A.** inconclusive: -0.736% [signal inhibitor]

**Q.** For `CCSc1ncc(Cl)c(C(=O)N(Cc2ccc(C(C)(C)C)cc2)C2CCS(=O)(=O)C2)n1` (stereo unspecified), which “IkBa stabilization activation” value is on record?
**A.** inactive: -1.21%

**Q.** Which “IkBa stabilization activation” value does the source give for `COc1ccc2c(c1)c1c(c(=O)n(Cc3ccccc3)c(=O)n1Cc1ccccc1)n2C` here?
**A.** inactive: -0.384%

**Q.** With `COCCNC(=O)c1cc(-c2ccc(OC)c(OC)c2)on1` as the molecule, how does the “IkBa stabilization activation” value read?
**A.** inactive: 4.25%

**Q.** For `CCOC(=O)c1c(C)oc2nc(C)nc(NCCCN3CCN(c4cc(Cl)ccc4C)CC3)c12`, which IkBa stabilization activation is on record?
**A.** inconclusive: -1.66% [signal inhibitor]

**Q.** With `CCOC(=O)c1cccc(NC(=O)Nc2ccc3c(c2)N(C)C(=O)c2ccccc2S3)c1` as the molecule, how does the IkBa stabilization activation read?
**A.** inconclusive: 4.76% [signal inhibitor]

**Q.** Which “IkBa stabilization activation” value does the source give for `Cc1ccc(-c2noc(-c3nnn(CC(=O)Nc4cccc(C(F)(F)F)c4)c3N)n2)cc1` here?
**A.** inactive: 0.175%

**Q.** With `COc1ccc2c(c1)CCc1c(C(=O)Nc3c(C)nn(Cc4c(Cl)cccc4Cl)c3C)noc1-2` as the molecule, how does the IkBa stabilization activation read?
**A.** inconclusive: 6.24% [signal inhibitor]

**Q.** For `C/C(Cl)=C/Cn1c(NCCCn2ccnc2)nc2c1c(=O)[nH]c(=O)n2C`, which IkBa stabilization activation is on record?
**A.** inconclusive: 0.169% [signal activator]

**Q.** For `O=C(c1cccs1)c1cn(CCOc2ccc(F)cc2)c2ccccc12`, which IkBa stabilization activation is on record?
**A.** inconclusive: 8.05% [signal inhibitor]

**Q.** Which “IkBa stabilization activation” value does the source give for `CCc1ccccc1NC(=O)c1cc2sc(Cl)cc2n1CC` here?
**A.** inactive: -0.0136%

**Q.** Which Potency does the source give for `O=C(O)Cc1sc(Nc2ccc(C(=O)O)cc2)nc1-c1ccccc1` here?
**A.** inconclusive: 1.26 µM [signal inhibitor, partial curve]

**Q.** For `COc1ccc(CNc2cc(-c3ccccc3OC)ncn2)c(OC)c1`, which IkBa stabilization activation is on record?
**A.** inactive: 0.557% [at 11.4 µM, scaled: untreated 0%, proteasome inhibitor 100%]

**Q.** For `COc1cc2ccccc2cc1C(=O)Nc1cccc(-c2nc3ccccc3o2)c1`, which IkBa stabilization activation is on record?
**A.** inconclusive: 0.848% [signal inhibitor]

**Q.** Which IkBa stabilization activation does the source give for `CC(C(=O)NCc1cccc(Br)c1)n1ncn2cccc2c1=O` (stereo unspecified) here?
**A.** inconclusive: -3.9% [signal inhibitor]

**Q.** With `Cc1ccc(NC(=O)c2c(C(=O)Nc3ccccc3)sc3nc(C)cc(=O)n23)cc1` as the molecule, how does the IkBa stabilization activation read?
**A.** inconclusive: 4.13% [signal inhibitor]

**Q.** With `Cc1ccccc1NC(=O)CCOc1ccccc1` as the molecule, how does the IkBa stabilization activation read?
**A.** inconclusive: 9.37% [signal inhibitor]

**Q.** For `COc1cc(-c2nc3ccc(Cl)cn3c2Nc2ccc3c(c2)OCO3)ccc1O`, which IkBa stabilization activation is on record?
**A.** inconclusive: 9.19% [signal inhibitor]

**Q.** With `Nc1nn(-c2ccccc2)nc1C(=O)OCc1ccccc1Br` as the molecule, how does the “IkBa stabilization activation” value read?
**A.** inactive: -2.5%

**Q.** Which IkBa stabilization activation does the source give for `CCOc1cccc(C(=O)Nc2ccc(N(CC)CC)cc2)c1` here?
**A.** inconclusive: 7.09% [signal inhibitor]

**Q.** For `CC(NC(=O)c1ccc(CSc2nc3ccncc3n2Cc2ccc(F)cc2)cc1)c1ccccc1` (stereo unspecified), which IkBa stabilization activation is on record?
**A.** inconclusive: 2.01% [signal inhibitor]

**Q.** For `O=S(=O)(c1ccccc1)c1nc(-c2cccs2)oc1N1CCCCC1`, which “IkBa stabilization activation” value is on record?
**A.** inactive: -0.476%

**Q.** With `O=C(CC1CCCCC1)c1c(O)c2ccccc2oc1=O` as the molecule, how does the IkBa stabilization activation read?
**A.** inconclusive: 14.6% [signal inhibitor]

**Q.** For `Cc1cc(Nc2cccc(F)c2)nc(-c2ccccc2O)n1`, which IkBa stabilization activation is on record?
**A.** inconclusive: 1.34% [signal activator]

**Q.** Which Potency does the source give for `O=C(CSC1=NS(=O)(=O)c2ccccc21)Nc1ccccc1` here?
**A.** inconclusive: 20 µM [rising, partial curve, poor fit]

**Q.** For `CCCCCn1c(=O)[nH]c2cc(C(=O)NCc3ccc(F)cc3)ccc2c1=O`, which “IkBa stabilization activation” value is on record?
**A.** inactive: 2.42%

**Q.** For `CCOC(=O)c1cnc(-c2ccccc2)nc1N`, which IkBa stabilization activation is on record?
**A.** inconclusive: 13% [signal inhibitor]

**Q.** Which “IkBa stabilization activation” value does the source give for `Cc1cccc(-c2noc(CCc3ccccc3)n2)c1` here?
**A.** inactive: 11.5%

**Q.** With `COCCNC(=O)c1ccc2c(c1)N(Cc1ccc(C(F)(F)F)cc1)C(=O)c1ccccc1S2` as the molecule, how does the IkBa stabilization activation read?
**A.** inconclusive: 1.74% [signal inhibitor]

**Q.** Which IkBa stabilization activation does the source give for `COc1ccc(-c2cn(-c3ccc(C)cc3)c(S(=O)(=O)CC(=O)Nc3ccccc3)n2)cc1` here?
**A.** inconclusive: 7.18% [signal inhibitor]

**Q.** With `Cc1ccc(CNC(=O)CN(C)S(=O)(=O)c2ccc(Br)s2)cc1` as the molecule, how does the IkBa stabilization activation read?
**A.** inconclusive: 5.41% [signal inhibitor]

**Q.** For `CCn1c(=O)cc(OCC(=O)Nc2ccc(C)cn2)c2ccccc21`, which IkBa stabilization activation is on record?
**A.** inconclusive: 4.45% [signal inhibitor]

**Q.** Which IkBa stabilization activation does the source give for `CC(C)c1ccccc1NC(=O)CSc1nnc(COc2ccccc2)o1` here?
**A.** inconclusive: 0.737% [signal inhibitor]

**Q.** With `O=C(Nc1ccc(Cl)c(Cl)c1)c1cc(S(=O)(=O)N2CCN(c3cccc(Cl)c3)CC2)ccc1F` as the molecule, how does the IkBa stabilization activation read?
**A.** inconclusive: -0.544% [signal inhibitor]

**Q.** For `O=C(NCCCCc1ccccc1)c1nn(-c2ccccc2F)nc1CO`, which IkBa stabilization activation is on record?
**A.** inconclusive: 1.3% [signal inhibitor]

**Q.** For `O=C(c1ccc(CS(=O)c2ccccc2Cl)o1)N1CCN(c2cccc(C(F)(F)F)c2)CC1` (stereo unspecified), which IkBa stabilization activation is on record?
**A.** inconclusive: -3.61% [signal inhibitor]

**Q.** For `Cc1ccc(-c2nc3cnccn3c2Nc2ccccc2)o1`, which Potency is on record?
**A.** inconclusive: 6.31 µM [rising, single point]

**Q.** With `COC(=O)c1cccc(CSc2nnc(-c3ccco3)n2-c2ccccc2)c1` as the molecule, how does the “IkBa stabilization activation” value read?
**A.** inactive: 0.3%

**Q.** For `O=C(Nc1ccccc1)Nc1cccc2cccnc12`, which IkBa stabilization activation is on record?
**A.** inconclusive: 0.511% [signal inhibitor]

**Q.** Which Potency does the source give for `c1ccc(OCc2nc(-c3ccccc3)no2)cc1` here?
**A.** inconclusive: 31.6 µM [signal inhibitor, single point]
